Test results as given in PMC5515408.
The other results are listed elsewhere or left out. At the low end of the ranking the order means little.

Each sequence was assayed on MYC (p64) + MAX (p21), in MYC:MAX (assay: protein-binding microarray (anti-MAX antibody)). Conditions: PBM: 15 mM Tris-HCl pH 7.5, 100 mM KCl, 0.075% NP40, 7.5 mM beta-mercaptoethanol, 375 ng/ul BSA, 8 ng/ul poly(dA-dT):(dA-dT), 550 ng complex, 60 min, room …; high values mean tight binding; double strand, one strand shown; sequences stand for … in CCGGC…TTAATAGCTAAGATTACTATATCGACG.
Work on TGATCCGTCGTA yielded a binding signal (log2 normalized fluorescence) of -0.107. TGAGAGTGAGTA gave a binding signal (log2 normalized fluorescence) of -0.192. In the case of TGACTAGTTGTA, the binding signal (log2 normalized fluorescence) is reported as -0.0321. Work on TGAGTGCCTGTA yielded a binding signal (log2 normalized fluorescence) of 0.232. With TGAGTACAGGTA the binding signal (log2 normalized fluorescence) was 0.00262. TGACTTAGTGTA gave a binding signal (log2 normalized fluorescence) of -0.0646. TGACATACCGTA showed a binding signal (log2 normalized fluorescence) of 0.177. For TGATATAAAGTA, the binding signal (log2 normalized fluorescence) was -0.32. TGAGATCTGGTA showed a binding signal (log2 normalized fluorescence) of -0.301. Sequence TGACCCTTGGTA has a binding signal (log2 normalized fluorescence) of 0.0687. With TGAGTCACCGTA the binding signal (log2 normalized fluorescence) was 0.151. TGACATTCCGTA showed a binding signal (log2 normalized fluorescence) of 0.27. TGATCCTATGTA was tested, and the binding signal (log2 normalized fluorescence) was -0.00579. Work on TGATGCTCTGTA yielded a binding signal (log2 normalized fluorescence) of 0.0578. TGAGGGGGTGTA showed a binding signal (log2 normalized fluorescence) of 0.809. With TGAGATGTGGTA the binding signal (log2 normalized fluorescence) was 0.149. Work on TGATGGATGGTA yielded a binding signal (log2 normalized fluorescence) of 0.171. TGACCAGTAGTA showed a binding signal (log2 normalized fluorescence) of 0.149. With TGAGGGCGCGTA the binding signal (log2 normalized fluorescence) was 0.131. Sequence TGACCGTGCGTA has a binding signal (log2 normalized fluorescence) of 0.245. In the case of TGACACACGGTC, the binding signal (log2 normalized fluorescence) is reported as 0.354. In the case of TGAATCGATGTA, the binding signal (log2 normalized fluorescence) is reported as 0.045. TGAAACCCTGTA gave a binding signal (log2 normalized fluorescence) of 0.16. TGACCTTGAGTA gave a binding signal (log2 normalized fluorescence) of 0.204. Sequence AAGCACGTGGTA has a binding signal (log2 normalized fluorescence) of 0.835. With TGACTAATCGTA the binding signal (log2 normalized fluorescence) was -0.127. TGACTGACAGTA gave a binding signal (log2 normalized fluorescence) of -0.0154. For GAACCCACTGCT, the binding signal (log2 normalized fluorescence) was 0.408. In the case of TGAACATGCGTA, the binding signal (log2 normalized fluorescence) is reported as 0.323. TGCTTCATGGTT showed a binding signal (log2 normalized fluorescence) of 0.301. TGATCGCGTGTA gave a binding signal (log2 normalized fluorescence) of 0.492. TGAGATTAGGTA gave a binding signal (log2 normalized fluorescence) of -0.166. For TGATAAAGGGTA, the binding signal (log2 normalized fluorescence) was -0.000515. Work on TGAATGCACGTA yielded a binding signal (log2 normalized fluorescence) of 0.413. TGAAAGAGCGTA was tested, and the binding signal (log2 normalized fluorescence) was -0.0273. For TGATGGGCAGTA, the binding signal (log2 normalized fluorescence) was 0.0215. TTCGACGTGGTA was tested, and the binding signal (log2 normalized fluorescence) was 0.34. With TGAACCCCGGTA the binding signal (log2 normalized fluorescence) was 0.218. In the case of GGACACGTAGTA, the binding signal (log2 normalized fluorescence) is reported as 0.369. Work on TGAAGGGACGTA yielded a binding signal (log2 normalized fluorescence) of -0.148. TGACACGTAGCA gave a binding signal (log2 normalized fluorescence) of 0.484. TGATCGTTAGTA was tested, and the binding signal (log2 normalized fluorescence) was -0.117. In the case of TGAACCGGCGTA, the binding signal (log2 normalized fluorescence) is reported as 0.0721. Sequence TGACACGTCCTA has a binding signal (log2 normalized fluorescence) of 0.405. For TGAGTGGCCGTA, the binding signal (log2 normalized fluorescence) was 0.273. Work on TGAGAGCTTGTA yielded a binding signal (log2 normalized fluorescence) of -0.0443. TGACACGGTGTA gave a binding signal (log2 normalized fluorescence) of 0.228. TGATGTTTGGTA gave a binding signal (log2 normalized fluorescence) of 0.0673. Sequence TAGAGTTTACCG has a binding signal (log2 normalized fluorescence) of -0.222. With TGACGATACGTA the binding signal (log2 normalized fluorescence) was 0.106. In the case of TGACAAATGGTA, the binding signal (log2 normalized fluorescence) is reported as 0.28. In the case of AGACCCGTGGTA, the binding signal (log2 normalized fluorescence) is reported as 0.277. TGAACAACGGTA was tested, and the binding signal (log2 normalized fluorescence) was 0.204. For TGACCTGCCGTA, the binding signal (log2 normalized fluorescence) was 0.223. Work on TGAATTCGGGTA yielded a binding signal (log2 normalized fluorescence) of -0.0384. For TTACATGTGGTA, the binding signal (log2 normalized fluorescence) was 0.625. TGAATACGAGTA was tested, and the binding signal (log2 normalized fluorescence) was 0.238. TGAATAAAAGTA showed a binding signal (log2 normalized fluorescence) of -0.065. TGATACCCGGTA showed a binding signal (log2 normalized fluorescence) of 0.0826. With TGAGATCATGTA the binding signal (log2 normalized fluorescence) was 0.165. CGACAGCCGGTT was tested, and the binding signal (log2 normalized fluorescence) was -0.0407. TGATACGTGTAA gave a binding signal (log2 normalized fluorescence) of 0.291. TGAATGCCGGTA showed a binding signal (log2 normalized fluorescence) of 0.0509. Sequence TGATTCGCAGTA has a binding signal (log2 normalized fluorescence) of -0.0563. Work on TGACACGCAGTA yielded a binding signal (log2 normalized fluorescence) of 0.458. TGAAGGCAAGTA showed a binding signal (log2 normalized fluorescence) of -0.0158. Work on TGATTTCGGGTA yielded a binding signal (log2 normalized fluorescence) of -0.124. With TGATGAATTGTA the binding signal (log2 normalized fluorescence) was -0.0305. TGACATGTGGCC showed a binding signal (log2 normalized fluorescence) of 0.558. TGATTGATCGTA was tested, and the binding signal (log2 normalized fluorescence) was -0.157. Sequence TGAAAGACGGTA has a binding signal (log2 normalized fluorescence) of -0.00169. TGAAATGCCGTA gave a binding signal (log2 normalized fluorescence) of 0.0989. Work on TGAAAGTCCGTA yielded a binding signal (log2 normalized fluorescence) of -0.0864. TGACGATGTGTA gave a binding signal (log2 normalized fluorescence) of 0.226. Sequence TGACACGCCATA has a binding signal (log2 normalized fluorescence) of 0.441. TGAGTCAAAGTA gave a binding signal (log2 normalized fluorescence) of -0.0966. With AGACACGTGGTA the binding signal (log2 normalized fluorescence) was 0.798. TGATCCCTAGTA was tested, and the binding signal (log2 normalized fluorescence) was -0.123. For TGAACAGGAGTA, the binding signal (log2 normalized fluorescence) was 0.198. TGAGCAGGAGTA showed a binding signal (log2 normalized fluorescence) of 0.118. TGAGCGCTTGTA gave a binding signal (log2 normalized fluorescence) of 0.254. Sequence TGAACTAATGTA has a binding signal (log2 normalized fluorescence) of -0.00423. TGACGTCGGGTA gave a binding signal (log2 normalized fluorescence) of -0.243. With TGAGGAGTCGTA the binding signal (log2 normalized fluorescence) was -0.0537. TGATACAGTGTA showed a binding signal (log2 normalized fluorescence) of 0.0568. Work on TGATTGCTAGTA yielded a binding signal (log2 normalized fluorescence) of -0.0538. With TGAGTGTCCGTA the binding signal (log2 normalized fluorescence) was 0.261. Work on TGATAGCAAGTA yielded a binding signal (log2 normalized fluorescence) of -0.0344. TGACGCTACGTA showed a binding signal (log2 normalized fluorescence) of 0.0734. For AAATACGTGGTA, the binding signal (log2 normalized fluorescence) was 0.556. For TGAGGCATAGTA, the binding signal (log2 normalized fluorescence) was -0.0779. Sequence TGATCTCAAGTA has a binding signal (log2 normalized fluorescence) of 0.0448. Sequence TGATCCATTGTA has a binding signal (log2 normalized fluorescence) of 0.0162. Sequence TGACGACGAGTA has a binding signal (log2 normalized fluorescence) of 0.082. TGAGCAATCGTA showed a binding signal (log2 normalized fluorescence) of 0.0406. TGAGACGAGGTA showed a binding signal (log2 normalized fluorescence) of 0.0194. For TGAGACCCGGTA, the binding signal (log2 normalized fluorescence) was -0.0338. For TGACCGGATGTA, the binding signal (log2 normalized fluorescence) was 0.246. With TGAAGTAGAGTA the binding signal (log2 normalized fluorescence) was -0.0982. With TGAATTTAAGTA the binding signal (log2 normalized fluorescence) was -0.0297. Work on TGAGCCGAGGTA yielded a binding signal (log2 normalized fluorescence) of -0.0395. Work on TGAAAAGAGGTA yielded a binding signal (log2 normalized fluorescence) of -0.00138. TGATAGAGAGTA showed a binding signal (log2 normalized fluorescence) of -0.00961. Work on TGAAGGCCGGTA yielded a binding signal (log2 normalized fluorescence) of -0.224. With TGAATGACGGTA the binding signal (log2 normalized fluorescence) was 0.101. CAGCACGTGGTA gave a binding signal (log2 normalized fluorescence) of 0.793. Sequence TGATACGTGGGA has a binding signal (log2 normalized fluorescence) of 0.327. For TGATGCCTTGTA, the binding signal (log2 normalized fluorescence) was 0.172. TGACCCTGGGTA was tested, and the binding signal (log2 normalized fluorescence) was 0.048. TGACGCACGGTA showed a binding signal (log2 normalized fluorescence) of 0.383. TGACAACGTGTA showed a binding signal (log2 normalized fluorescence) of 0.432. With TGACAGCGAGTA the binding signal (log2 normalized fluorescence) was 0.152. With TGAACCAGAGTA the binding signal (log2 normalized fluorescence) was -0.211. TGAAACCGAGTA gave a binding signal (log2 normalized fluorescence) of 0.148. TGACCCCCAGTA was tested, and the binding signal (log2 normalized fluorescence) was 0.19. TGATATCGGGTA was tested, and the binding signal (log2 normalized fluorescence) was -0.158. In the case of TGGCACGTCGGA, the binding signal (log2 normalized fluorescence) is reported as 0.155. TGACAAGTAGTC was tested, and the binding signal (log2 normalized fluorescence) was -0.0371. Sequence TGAATCGGAGTA has a binding signal (log2 normalized fluorescence) of -0.207. For TGACACGTTCCA, the binding signal (log2 normalized fluorescence) was 0.522. Sequence TGGCACCTGGTA has a binding signal (log2 normalized fluorescence) of 0.448. Sequence TGAACGGAAGTA has a binding signal (log2 normalized fluorescence) of 0.0165. For TGATCCGATGTA, the binding signal (log2 normalized fluorescence) was 0.0271. TGAAGGGAAGTA showed a binding signal (log2 normalized fluorescence) of -0.154. Work on TGAAGAAGTGTA yielded a binding signal (log2 normalized fluorescence) of 0.104. TCGCACGTGGTA was tested, and the binding signal (log2 normalized fluorescence) was 0.665. In the case of TGATCGTGCGTA, the binding signal (log2 normalized fluorescence) is reported as 0.142. Sequence TGAGGTCACGTA has a binding signal (log2 normalized fluorescence) of 0.191. Sequence TGATCAACGGTA has a binding signal (log2 normalized fluorescence) of 0.15. Sequence TGACGTAACGTA has a binding signal (log2 normalized fluorescence) of 0.0723. In the case of TGATTACGAGTA, the binding signal (log2 normalized fluorescence) is reported as 0.0125. With TGATGCGTCGTA the binding signal (log2 normalized fluorescence) was 0.187. For TGAAGGGAGGTA, the binding signal (log2 normalized fluorescence) was 0.069. In the case of TGAAAGCGCGTA, the binding signal (log2 normalized fluorescence) is reported as 0.165. TGAGACGTGTTA gave a binding signal (log2 normalized fluorescence) of 0.394. CATGCCCGAAAC showed a binding signal (log2 normalized fluorescence) of 0.366. With TGAAAGGATGTA the binding signal (log2 normalized fluorescence) was 0.21.
